The results in this text go back to PubChem BioAssay AID463173 (ICCB-Longwood Screening Facility, Harvard Medical School, 2010).

The whole screen tested about 52,000 compounds, of which about 4,300 (8.3%) were called active. No stated cut-off is given here; in the data, active means survival mostly below about 52% (no sharp cut-off); inactive means mostly above about 56%. The list shows a part of the results.

This experiment concerns DeltatarO mutant. The experiment in a line: S. aureus survival, RN4220 and DeltatarO strains – OD600, teichoic acid synthesis inhibitors, primary screen (AID 463173). The following applies: S. aureus RN4220 wild type/DeltatarO growth, OD600, 18 h, stronger effect = lower value, screened at 18.75 µg/mL (by protocol).
Take `CCc1ccccc1NC(=O)CN1C(=O)CCn2nc(-c3cccn3C)cc21`: the survival is inactive: 79%.
In the case of `Cc1ccc(-c2c(CN3CCN(c4cc(C)ccc4C)CC3)csc2C)cc1` it was inactive: 126%; in that of `Cc1c(C(=O)NC(C)c2ccccc2)sc2ncnc(N(C)C3CCCCC3)c12` (centres undefined), inactive: 105%.
Turning to `O=S(=O)(Nc1ccc(-c2ccc(N3CCCCC3)nn2)cc1)c1ccc(OC(F)(F)F)cc1`, the survival is inactive: 82%.
With `CCN(CC)C(=O)CSc1nnc2ccc3ccccc3n12`, the survival was inactive: 73%.
In the case of `CCc1c(C)nc2c(C)cccc2c1Cl` it was inactive: 100%; in that of `COCCn1c(C)cc(O)c(C(c2ccccc2)N2CCC(C)CC2)c1=O` (centres undefined), inactive: 78%; in that of `CCc1ccccc1Nc1cc(C(=O)NCc2ccc(C)cc2)c2ccccc2n1`, inactive: 69%.
In the case of `COc1ccc(N2C(=O)CSC23C(=O)N(C)c2ccccc23)cc1Cl` (centres undefined) it was inactive: 82%; in that of `O=C(c1c2c(nc3ccccc13)C(=O)N(C1CCCCC1)C2)N1CCN(c2ccc(F)cc2)CC1`, inactive: 102%; in that of `CCOC(=O)N1CCN(C(=O)c2ccc3c(c2)N(Cc2ccccc2F)C(=O)c2ccccc2S3=O)CC1` (centres undefined), inactive: 93%.
To `COC(=O)c1c(NC(=O)c2cc(=O)c3c(C)cc(C)cc3o2)sc2c1CCCC2` belongs inactive: 61%; to `Cc1ccc(-n2ncc3c(N4CCN(c5ccccc5)CC4)ncnc32)cc1C`, inactive: 92%.
Regarding `Cc1cccc(NC(=O)CN(c2ccc(C(C)C)cc2)S(=O)(=O)c2c(C)nn(C)c2C)c1C`, the survival was active: 42%.
Regarding `CCOC(=O)C1CCN(S(=O)(=O)c2cc(-c3onc(C)c3C)ccc2C)CC1`, the survival is inactive: 91%.
To `CCOc1cc(CNS(=O)(=O)c2ccc3c(c2)CC(=O)N3C)cc(OCC)c1OCC` belongs inactive: 98%.
To `O=C(Nc1ccc(C(=O)N2CCN(c3ccc(F)cc3)CC2)cc1)c1nsc2ccccc12` belongs inactive: 81%; to `CCN1CCN(CCCNC(=O)c2ccc3nc(Cc4ccc(OC)cc4)oc3c2)CC1`, inactive: 99%; to `CC(C)C(=O)Nc1ccc(Br)cc1`, inactive: 103%.
In the case of `Cc1cc(C)n(C(C)CC(=O)NCc2ccccc2C)n1` (centres undefined) it was inactive: 79%.
Regarding `COc1ccc(Br)cc1C(=O)Nc1ccc2oc(-c3cccnc3)nc2c1`, the survival was inactive: 117%.
To `CC(=O)Nc1ccc(S(=O)(=O)N2CCC(c3ccncc3)CC2)cc1` belongs active: -5%; to `CCCCN(CCCC)c1ncnc2c1cnn2-c1cccc(C)c1`, inactive: 74%.
Regarding `CCOC(=O)c1c(S(=O)(=O)N2CCCC(C(=O)Nc3ccc(OCC)cc3)C2)c(C)n(C)c1C` (centres undefined), the survival is inactive: 99%.
In the case of `COc1ccc(C)cc1Nc1nc2c(S(=O)(=O)c3cccc(Cl)c3)nnn2c2ccsc12` it was inactive: 51%; in that of `Cc1ccc(S(=O)(=O)c2cn(Cc3cccc(F)c3)c3cc(N4CCCC4)c(F)cc3c2=O)cc1`, inactive: 70%; in that of `Cc1ccc(-c2cc(NC(=O)c3ccccc3Cl)on2)cc1`, inactive: 59%.
In the case of `CCCOc1ccccc1-c1nc(SCC(=O)c2ccccc2)n[nH]1` it was inactive: 109%; in that of `CCN(CC)c1nn2c(=O)c(C(=O)NCCc3ccc(C)cc3)cnc2s1`, inactive: 87%; in that of `CCn1c2ccccc2c2nnc(N3CCN(c4ccc(F)cc4)CC3)nc21`, inactive: 75%.
With `Cc1nc2sc(C(=O)N(C)Cc3ccccc3)c(NC(=O)c3ccccc3)c2c(C)c1Cl`, the survival was inactive: 60%.
In the case of `Cc1cccc(N2CCN(C(c3nnnn3C3CCCC3)C(C)C)CC2)c1C` (centres undefined) it was inactive: 79%; in that of `CCOC(=O)c1cc2c(=O)n3ccccc3nc2n(CC2CCCO2)c1=NC(=O)c1ccc(C(C)(C)C)cc1` (centres undefined), inactive: 59%.
To `CCOc1ccc(CNC(=O)c2ccc(Sc3ccc(Cl)cc3)c(NC(C)=O)c2)cc1` belongs inactive: 115%; to `CCCC(=O)Nc1ccc2c(c1)nc(CN1CCN(C(=O)OCC)CC1)n2C(C)C`, inactive: 103%; to `COc1ccc(NC(=O)CSc2cn(CC(=O)N3CCCCC3)c3ccccc23)c(OC)c1`, inactive: 76%.
In the case of `COc1ccccc1CNC(=O)Cc1c(C)c2c(cc(C)c3c(C)c(C)oc32)oc1=O` it was inactive: 84%; in that of `CC(C)(C)C(=O)N(CCc1ccccc1)Cc1nc2ccccc2c(=O)[nH]1`, inactive: 81%.
With `CCCC(=O)N(C)c1nnc(-c2ccc(F)cc2)s1`, the survival is inactive: 99%.
Consider `Cc1ccccc1C(=O)c1cccn1CC(=O)NCc1ccc(Cl)cc1`, for which the survival is inactive: 82%.
As for `CCC1CN(C(=O)NCc2cccc(OC)c2)c2cc(Cl)ccc2O1` (centres undefined), the survival is active: 43%.
Consider `COc1ccc(CCNC(=O)CCCn2c(=O)c3cccn3c3cccnc32)cc1OC`, for which the survival is inactive: 90%.
To `Cc1ccc2c(CN3CCN(Cc4ccccc4Cl)CC3)cc(=O)oc2c1` belongs inactive: 43%; to `CCCCC1CCC(C(=O)N2CC(=O)Nc3ccc(F)cc3C2c2ccc(F)cc2)CC1` (centres undefined), active: 38%.
In the case of `CCCOc1ccc(/C=C/C(=O)Nc2sc(C)c(C)c2C(=O)OCC)cc1OC` it was inactive: 47%; in that of `CCOc1ccc(S(=O)(=O)NCCc2csc(-c3ccc(Cl)cc3)n2)cc1`, inactive: 91%.
In the case of `Cc1nc(S(=O)(=O)N2CCN(c3ccc(Cl)cc3)CC2)cn1C` it was inactive: 69%; in that of `Cc1nnc(SCc2cc(=O)c3ccccc3[nH]2)s1`, inactive: 125%.
As to `CCOc1ccc(CCNC(=O)c2ccc(-c3nc(CSc4ccc(C)cc4)c(C)o3)cc2)cc1`, the survival was inactive: 76%.
To `COc1ccc(OC)c(NC(=O)CCN2CCN(Cc3cccc4ccccc34)CC2)c1` belongs inactive: 89%.
To `Cc1cc(C)cc(Nc2ncnc3c2nc2n3CCCC2)c1` belongs inactive: 70%.
To `COc1ccc(N2CC(NC(=O)COc3ccccc3F)CC2=O)cc1OC` (centres undefined) belongs inactive: 91%; to `COC(=O)c1ccc(C=Nc2ccc(O)c(-c3nc4ccccc4o3)c2)cc1`, inactive: 93%; to `CCOc1ccc(NC(=O)CSc2oc(-c3ccco3)nc2S(=O)(=O)c2ccc(C)cc2)cc1`, inactive: 74%.
With `CC(C)OC(=O)CSc1nc2cc3c(cc2cc1C#N)OCO3`, the survival was inactive: 80%.
In the case of `CC(C)CCNC(=O)CN1C(=O)CCn2nc(-c3cn(C)c4ccccc34)cc21` it was inactive: 94%; in that of `Cc1ccc(C2NC(=O)c3n[nH]c(-c4cccs4)c32)cc1` (centres undefined), inactive: 79%; in that of `Cc1ccc(S(=O)(=O)N2CCN(S(=O)(=O)c3ccc(C)cc3)CC2)cc1`, inactive: 96%.
In the case of `Cc1ccc(Cl)cc1N1CCN(C(=O)Cn2nc(C)c3sc4ccccc4c3c2=O)CC1` it was inactive: 57%; in that of `COc1ccc(NC(=O)CCS(=O)(=O)c2nc(-c3ccc4c(c3)OCO4)cc(C(F)(F)F)n2)cc1OC`, inactive: 79%; in that of `CCC(C)NC(=O)CCSc1nc(-c2ccc3c(c2)OCO3)cc(C(F)(F)F)n1` (centres undefined), inactive: 120%.
In the case of `O=C(Nc1cccc(C(=O)OCc2cc(=O)n3c4c(sc3n2)CCCC4)c1)c1cccc(F)c1` it was inactive: 98%.
Regarding `CCOC(=O)c1ccc(N2C(=O)c3[nH]nc(-c4ccc(OC)cc4)c3C2c2cccc(O)c2)cc1` (centres undefined), the survival was inactive: 57%.
In the case of `COc1ccccc1CNC(=O)CCn1c(=O)c2ccccc2n(CC(=O)Nc2cc(Cl)ccc2C)c1=O`, the survival is inactive: 77%.
In the case of `COc1ccccc1NC(=O)Cn1nnc(C(=O)NCc2cccs2)c1N` it was inactive: 81%.
Regarding `O=c1cc(COc2ccccc2Cl)nc2scc(-c3ccccc3)n12`, the survival was inactive: 81%.
`O=C(Nc1ccccc1Cl)N1CCC2(CC1)Oc1ccccc1C(=O)N2Cc1ccc(F)cc1`: the survival is inactive: 64%.
To `C=CCc1c(C)nc2ccccc2c1Cl` belongs inactive: 87%; to `CCc1ccc(NC(=O)c2cnc3c(-c4ccccc4)c(C)nn3c2C)cc1`, inactive: 94%.
In the case of `CC(=O)c1ccc(NC(=O)c2ccc(-c3nc(CSc4ccc(C)cc4)c(C)o3)cc2)cc1` it was inactive: 84%; in that of `COc1cc2c(cc1OC)C(CC(=O)Nc1ccccc1)C(=O)NN=C2C` (centres undefined), inactive: 103%; in that of `COc1cccc(Cn2c(C)c(CNCc3cccc(C)c3)c(C(=O)O)c2C)c1`, inactive: 115%.
In the case of `Cc1ccc(NC(=O)CSc2nc3ccc(NC(=O)c4ccco4)cc3s2)cc1` it was inactive: 72%; in that of `O=S(=O)(NCc1ccccc1)c1ccc(S(=O)(=O)N2CCCCCC2)cc1`, inactive: 75%; in that of `COc1ccc(C2CC(=O)c3cc(-c4nc(-c5cccc([N+](=O)[O-])c5)cs4)c(=O)n(-c4cccc(C)c4)c3C2)cc1` (centres undefined), inactive: 59%.
With `COC(=O)c1c(NC(=O)Cc2coc3cc(C)cc(C)c23)sc2c1CCC2`, the survival was inactive: 75%.
To `COc1cc(C(=O)NCc2ccc3c(c2)CCN3C(=O)c2ccc(Cl)cc2)cc(OC)c1OC` belongs inactive: 97%; to `Cc1ccc(NC(=O)CSc2nc(=O)n(Cc3ccccn3)c3c2CCC3)cc1F`, inactive: 80%; to `COCCNC(=O)c1c(NC(=O)c2cc(=O)c3cc(C)cc(C)c3o2)sc2c1CCCC2`, inactive: 72%.
To `CCN(CC)c1ccc(-c2nc(NC(C)=O)c3c(=O)oc4ccccc4c3n2)cc1` belongs inactive: 98%.
To `COc1ccc(CCNC(=O)c2ccc(Cn3c(=O)c4cccn4c4cccnc43)cc2)cc1OC` belongs active: 48%.
Regarding `Cc1[nH]c(=O)[nH]c(=O)c1Cc1cccc2ccccc12`, the survival is inactive: 73%.
To `Cc1cc(C)n2nc(CNS(=O)(=O)c3cccc(Cl)c3)nc2n1` belongs inactive: 121%; to `Cc1cc(C(=O)N2CCN(c3ccccc3F)CC2)c2c(C)nn(-c3ccccc3)c2n1`, inactive: 130%.
Turning to `COc1ccc(NC(=O)N(CCN(C)C)Cc2cc3cc(OC)ccc3[nH]c2=O)cc1`, the survival is inactive: 104%.
In the case of `Cc1cc(C)c2oc(-c3cccc(NC(=O)c4cccc(F)c4)c3C)nc2c1` it was inactive: 72%; in that of `CCCCN(C)C(=O)CSc1c2c(nc3ccc(Cl)cc13)CCCC2`, active: -2%.
In the case of `CCC(C)NC(=O)c1ccc(CNS(=O)(=O)c2ccc3c(c2)C(C)(C)C(=O)N3C)cc1` (centres undefined) it was inactive: 75%; in that of `O=C(CSc1nc2ccccc2nc1Cc1ccccc1)N1CCc2ccccc21`, inactive: 76%.
